The series deals with the molecule itself. Put plainly: mass photometry.

As usually defined, the stoichiometry N is a count of units in the complex or per binding partner.

B1: VCP Y755H (enzyme)
chain: not shown
As for B1, the “stoichiometry N” value worked out at 6.

B2: VCP K754N (enzyme)
chain: not shown
As for B2, the “stoichiometry N” value was found to be 6.

Values taken from article doi:10.1101/2024.09.08.611915 (bioRxiv, 2024).
